Several values for one entry are separate records, joined by “and”; a condition that tells them apart may be missing. Equal values may be shown once. The shares of active, inactive and inconclusive entries below differ from those in the screen. Where the call is inconclusive, the potency comes from a doubtful curve fit. Activity calls are given as the source filed them. Calls follow the shape of the dose curve; as a rule, active = well fitted curve in the direction sought with a large enough effect; inconclusive = small, poorly fitted or top-dose-only effect, or another doubt; inactive = no such curve, though single readings can be large; an effect the other way counts as inactive or inconclusive.
Legend:
HEK293 = assay: Cytotoxic Profiling of Annotated Libraries Using Quantitative High-Throughput Screening (AID 1296008); conditions: Five cell lines viability, CellTiter-Glo ATP luminescence, 48-72 h; max response: stronger effect = lower value; also: nearly all actives have a fitted effect of over 60% in size
Method in brief: (§1)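 Cytotoxicity was measured as CellTiter-Glo ATP luminescence, read after 10 min at room temperature. Compound treatment of the cells lasted 48 or 72 hr at 37 degrees Celsius in a qHTS format.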

HaCat = assay: as above; conditions: Five cell lines viability, CellTiter-Glo ATP luminescence, 48-72 h; max response: stronger effect = lower value
Method in brief: as §1

KB-3-1 = assay: as above; conditions: Five cell lines viability, CellTiter-Glo ATP luminescence, 48-72 h; max response: stronger effect = lower value
Method in brief: as §1

UISO = assay: qHTS assay to identify novel small-molecules to repurpose for Merkel cell carcinoma treatment (AID 1296009); conditions: MCC and control cell lines, CellTiter-Glo viability, 72 h; series mostly up to 46 µM; also: nearly all actives have a fitted effect of over 60% in size
Method in brief: (§2)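 Cell viability measured by CellTiter-Glo following 72 hr compound treatment at 37 degree celsius, with NPC and MIPE libraries tested in 8- and 11-point concentration series.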

WaGa = assay: as above; conditions: MCC and control cell lines, CellTiter-Glo viability, 72 h; series mostly up to 46 µM
Method in brief: as §2

CAOV3 = assay: Primary qHTS to identify gynecologic anti-cancer compounds using libraries of approved drugs and bioactive compounds (AID 1345084); conditions: Gynecologic cancer cell panel viability, ATPlite luminescence, 48 h; series mostly up to 57.5 µM; also: nearly all actives have a fitted effect of over 55% in size
Method in brief: (§3)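 Five-concentration response, 48 h; readout is ATP-driven luciferase luminescence.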

CASKI = assay: as above; conditions: Gynecologic cancer cell panel viability, ATPlite luminescence, 48 h; series mostly up to 57.5 µM
Method in brief: as §3

Hek293T = assay: as above; conditions: Gynecologic cancer cell panel viability, ATPlite luminescence, 48 h, control line for the selectivity index; series mostly up to 57.5 µM
Method in brief: as §3

OV90 = assay: as above; conditions: Gynecologic cancer cell panel viability, ATPlite luminescence, 48 h; series mostly up to 57.5 µM
Method in brief: as §3

PA-1 = assay: as above; conditions: Gynecologic cancer cell panel viability, ATPlite luminescence, 48 h; series mostly up to 57.5 µM
Method in brief: as §3

SKOV3 = assay: as above; conditions: Gynecologic cancer cell panel viability, ATPlite luminescence, 48 h; series mostly up to 57.5 µM
Method in brief: as §3

NIH3T3 = assay: Cytotoxic Profiling of Annotated Libraries Using Quantitative High-Throughput Screening (AID 1296008); conditions: Five cell lines viability, CellTiter-Glo ATP luminescence, 48-72 h; max response: stronger effect = lower value; also: nearly all actives have a fitted effect of over 60% in size
Method in brief: as §1

MCC-13 = assay: qHTS assay to identify novel small-molecules to repurpose for Merkel cell carcinoma treatment (AID 1296009); conditions: MCC and control cell lines, CellTiter-Glo viability, 72 h; series mostly up to 46 µM; also: nearly all actives have a fitted effect of over 60% in size
Method in brief: as §2

MCC-26 = assay: as above; conditions: MCC and control cell lines, CellTiter-Glo viability, 72 h; activity change, negative = cytotoxicity: at 46 µM (top of the series)
Method in brief: as §2

MKL-1 = assay: as above; conditions: MCC and control cell lines, CellTiter-Glo viability, 72 h; series mostly up to 46 µM
Method in brief: as §2

MKL-2 = assay: as above; conditions: MCC and control cell lines, CellTiter-Glo viability, 72 h; activity change, negative = cytotoxicity: at 46 µM (top of the series)
Method in brief: as §2

Es-2 = assay: Primary qHTS to identify gynecologic anti-cancer compounds using libraries of approved drugs and bioactive compounds (AID 1345084); conditions: Gynecologic cancer cell panel viability, ATPlite luminescence, 48 h; series mostly up to 57.5 µM; also: nearly all actives have a fitted effect of over 55% in size
Method in brief: as §3

HeLa = assay: as above; conditions: Gynecologic cancer cell panel viability, ATPlite luminescence, 48 h; series mostly up to 57.5 µM
Method in brief: as §3

JEG-3 = assay: as above; conditions: Gynecologic cancer cell panel viability, ATPlite luminescence, 48 h; series mostly up to 57.5 µM
Method in brief: as §3

C33A = assay: as above; conditions: Gynecologic cancer cell panel viability, ATPlite luminescence, 48 h; series mostly up to 57.5 µM
Method in brief: as §3
% is scaled to controls: 0 for no effect and ±100 for the full control effect; potency is read from the fitted curve at half-maximal effect; tags tell the direction and shape of the fitted curve.

`CC(C)(C)Cn1c(N)nc2ccc(-c3[nH]c(C(C)(C)C)nc3-c3ccc(F)cc3)nc21` was tested, and the Potency (HEK293) was inconclusive: 26.4 µM [inhibitor, single point], the Potency (HaCat) was active: 5.9 µM and active: 4.61 µM and the Potency (KB-3-1) was inconclusive: 33.2 µM [inhibitor, single point] and inconclusive: 29.1 µM [inhibitor, single point]. For the same compound, the Potency (UISO) was inconclusive: 37.2 µM [inhibitor, single point], the Potency (WaGa) was inconclusive: 20.9 µM [inhibitor, partial curve] and the Potency (CAOV3) was inconclusive: 39.8 µM [cytotoxic, single point]. For the same compound, the Potency (CASKI) was inconclusive: 39.8 µM [cytotoxic, single point], the Potency (Hek293T) was inconclusive: 35.5 µM [cytotoxic, single point] and the Potency (OV90) was inconclusive: 22.4 µM [cytotoxic, single point]. For the same compound, the Potency (PA-1) was “inactive” and the Potency (SKOV3) was inconclusive: 39.8 µM [cytotoxic, single point].

With `CCN(CC)c1ccc(C(=C2C=CC(=[N+](CC)CC)C=C2)c2cc(S(=O)(=O)O)ccc2S(=O)(=O)[O-])cc1` the Potency (HEK293) was inconclusive: 33.5 µM [inhibitor, single point], the Potency (HaCat) was inconclusive: 29.9 µM [inhibitor, single point] and the Potency (NIH3T3) was inconclusive: 26.6 µM [inhibitor, single point]. For the same compound, the Potency (MCC-13) was inconclusive: 23.7 µM [inhibitor, partial curve], the Potency (MCC-26) was inconclusive: 5.96 µM [inhibitor, partial curve] and the Potency (MKL-1) was inconclusive: 10.6 µM [inhibitor, partial curve]. For the same compound, the Potency (MKL-2) was inconclusive: 9.44 µM [inhibitor, partial curve, poor fit], the Potency (UISO) was inconclusive: 9.44 µM [inhibitor, partial curve] and the Potency (WaGa) was inconclusive: 23.7 µM [inhibitor, partial curve]. The Potency (CAOV3) was active: 28.2 µM, the Potency (CASKI) was inconclusive: 31.6 µM [cytotoxic, single point] and the Potency (Es-2) was active: 28.2 µM. For the same compound, the Potency (HeLa) was inconclusive: 28.2 µM [cytotoxic, single point], the Potency (Hek293T) was active: 12.6 µM and the Potency (JEG-3) was inconclusive: 12.6 µM [cytotoxic, partial curve]. For the same compound, the Potency (PA-1) was active: 3.55 µM and the Potency (SKOV3) was inconclusive: 12.6 µM [cytotoxic, partial curve].

With `Clc1ccccc1-c1nc(-c2ccncc2)no1` the Potency (HEK293) was inconclusive: 33.5 µM [inhibitor, single point], the outcome (HaCat) was “inactive” and the Potency (MKL-2) was “inactive”. The Potency (CASKI) was inconclusive: 15.8 µM [cytotoxic, partial curve, poor fit], the Potency (Es-2) was inconclusive: 31.6 µM [cytotoxic, partial curve, poor fit] and the Potency (HeLa) was active: 28.2 µM. For the same compound, the Potency (Hek293T) was inconclusive: 31.6 µM [cytotoxic, single point], the Potency (JEG-3) was inconclusive: 15.8 µM [cytotoxic, partial curve] and the Potency (OV90) was inconclusive: 22.4 µM [cytotoxic, partial curve, poor fit]. The Potency (PA-1) was inconclusive: 35.5 µM [cytotoxic, single point] and the Potency (SKOV3) was active: 22.4 µM.

`CC(NCCC(c1ccccc1)c1ccccc1)c1ccccc1` (centres undefined) was tested, and the Potency (HEK293) was inconclusive: 29.9 µM [inhibitor, single point], the Potency (HaCat) was inconclusive: 33.5 µM [inhibitor, single point] and the Potency (MCC-26) was inconclusive: 26.6 µM [inhibitor, single point]. For the same compound, the Potency (WaGa) was inconclusive: 18.8 µM [inhibitor, single point], the Potency (C33A) was inconclusive: 39.8 µM [cytotoxic, single point] and the Potency (CAOV3) was inconclusive: 22.4 µM [cytotoxic, single point]. For the same compound, the Potency (CASKI) was inconclusive: 39.8 µM [cytotoxic, single point], the Potency (OV90) was active: 28.2 µM and the Potency (PA-1) was inconclusive: 28.2 µM [cytotoxic, single point].

In the case of `O=c1[nH]cc(F)c(=O)[nH]1`, the Potency (HEK293) is reported as inconclusive: 33.5 µM [inhibitor, single point], the Potency (HaCat) is reported as inconclusive: 5.31 µM [inhibitor, partial curve, poor fit] and inconclusive: 2.64 µM [inhibitor, full curve] and the Potency (NIH3T3) is reported as active: 3.76 µM and active: 2.96 µM. The Potency (UISO) was inconclusive: 10.6 µM [inhibitor, partial curve] and inconclusive: 13.2 µM [inhibitor, partial curve], the Potency (WaGa) was inconclusive: 13.3 µM [inhibitor, partial curve] and active: 10.5 µM and the Potency (C33A) was inconclusive: 35.5 µM [cytotoxic, partial curve]. The Potency (JEG-3) was inconclusive: 20 µM [cytotoxic, partial curve] and the Potency (PA-1) was inconclusive: 39.8 µM [cytotoxic, single point].

For `CCc1cccc(N(C)C(N)=Nc2cccc3ccccc23)c1`, the Potency (HEK293) was inconclusive: 18.8 µM [inhibitor, partial curve], the max response (HaCat) was inactive: -4.04% and the Potency (MCC-13) was inconclusive: 29.9 µM [inhibitor, single point]. For the same compound, the activity change, negative = cytotoxicity (MKL-2) was inconclusive: -43.8% [inhibitor], the Potency (WaGa) was inconclusive: 29.9 µM [inhibitor, single point] and the Potency (CAOV3) was “inactive”. The Potency (OV90) was inconclusive: 11.2 µM [cytotoxic, partial curve] and the Potency (PA-1) was inconclusive: 39.8 µM [cytotoxic, single point].

From PubChem BioAssay (NCATS)
